Growth of fresh clinical P. falciparum isolates by hypoxanthine uptake over 42 h; for most isolates 1.6-1,647 nM mefloquine, 0.044-87 nM artesunate, 10-10,256 nM chloroquine, 2.4-236 nM lumefantrine. EC50, lower = more sensitive; slope from the same fit, higher = steeper. No active / inactive call. Fits with a coefficient of variation above 100% are not listed here; 15-28% of fits exceed 15%. Isolates are numbered anew.
Assays:
[1] = compound: T1, C[C@H]1[C@H](OC(=O)CCC(=O)O)O[C@@H]2O[C@@]3(C)CC[C@H]4[C@H](C)CC[C@@H]1[C@@]24OO3 [artesunate]
Method: (§1)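 Hypoxanthine uptake by fresh isolates, duplicate serial dilutions, 24 h of drug plus 18 h after the label; sigmoid fit per isolate.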

[2] = compound: T2, OC(c1cc(C(F)(F)F)nc2c(C(F)(F)F)cccc12)C1CCCCN1 [mefloquine]
Method: as §1

[3] = compound: T3, CCN(CC)CCCC(C)Nc1ccnc2cc(Cl)ccc12 [chloroquine]
Method: as §1

[4] = compound: T4, CCCCN(CCCC)CC(O)c1cc(Cl)cc2c1-c1ccc(Cl)cc1/C2=C/c1ccc(Cl)cc1 [lumefantrine]
Method: as §1

[5] = compound: T1, artesunate; assay: slope of the dose-response curve (dimensionless); higher = steeper concentration-effect curve
Method: as §1

[6] = compound: T2, mefloquine; assay: as above
Method: as §1

[7] = compound: T3, chloroquine; assay: as above
Method: as §1

[8] = compound: T4, lumefantrine; assay: as above
Method: as §1

Test System | EC50 of parasite growth [1] [µg/mL] | EC50 of parasite growth [2] [µg/mL] | EC50 of parasite growth [3] [µg/mL] | EC50 of parasite growth [4] [µg/mL] | slope [5] | slope [6] | slope [7] | slope [8]
Plasmodium falciparum isolate 53 (pfmdr1 allele: 86N, 1042N, pfmdr1 copies: 2) | 0.00133 | 0.0348 | 0.0446 | 0.016 | 6.6 | 2.21 | 9.96 | 3.66
Plasmodium falciparum isolate 309 (pfmdr1 allele: 86Y, pfmdr1 copies: 1) | 0.00155 | 0.0214 | 0.16 | 0.0241 | 7.14 | 3.18 | 4.06 | 2.29
Plasmodium falciparum isolate 381 (pfmdr1 allele: 86N, 1042N, pfmdr1 copies: 1) | 0.000542 | 0.00413 | 0.299 | 0.00934 | 2.47 | 1.68 | 6.05 | 2.52
Plasmodium falciparum isolate 49 (pfmdr1 allele: 86N, 1042N, pfmdr1 copies: 2) | 0.000924 | 0.0518 | 0.0911 | 0.0233 | 6.69 | 3.72 | 3.79 | 3.5
Plasmodium falciparum isolate 13 (pfmdr1 allele: 86N, 1042N, pfmdr1 copies: 1) | 0.000552 | 0.0144 | 0.0696 | 0.00649 | 5.82 | 5.13 | 3.88 | 2.75
Plasmodium falciparum isolate 119 (pfmdr1 allele: 86N, 1042N, pfmdr1 copies: 1) | 0.000718 | 0.0378 | 0.182 | 0.0176 | 4.56 | 2.46 | 3.83 | 1.72
Plasmodium falciparum isolate 162 (pfmdr1 allele: 86N, 1042N, pfmdr1 copies: 1) | 0.000397 | 0.0245 | 0.0781 | 0.0193 | 4.23 | 2.53 | 4.28 | 2.5
Plasmodium falciparum isolate 147 (pfmdr1 allele: 86N, 1042N, pfmdr1 copies: 1) | 0.000553 | 0.0231 | 0.0586 | 0.0129 | 6.33 | 2.72 | 2.89 | 1.92
Plasmodium falciparum isolate 275 (pfmdr1 allele: 86N, 1042N, pfmdr1 copies: 1) | 0.000444 | 0.022 | 0.1 | 0.00811 | 10 | 2.65 | 4.24 | 2.27
Plasmodium falciparum isolate 333 (pfmdr1 allele: 86N, 1042N, pfmdr1 copies: 1) | 0.00205 | 0.0197 | 0.218 | 0.00879 | 9.99 | 2.06 | 5.38 | 2.21
Plasmodium falciparum isolate 389 (pfmdr1 allele: 86N, 1042N, pfmdr1 copies: 3) | 0.000781 | 0.0835 | 0.0396 | 0.0367 | 10 | 3.57 | 2.41 | 3.46
Plasmodium falciparum isolate 195 (pfmdr1 allele: 86N, 1042N, pfmdr1 copies: 2) | 0.000405 | 0.0344 | 0.111 | 0.0149 | 4.11 | 1.65 | 2.93 | 1.24
Plasmodium falciparum isolate 458 (pfmdr1 allele: 86Y, pfmdr1 copies: 1) | 0.00038 | 0.00234 | 0.16 | 0.00204 | 1.7 | 1.48 | 1.25 | 1.41
Plasmodium falciparum isolate 110 (pfmdr1 allele: 86N, 1042N, pfmdr1 copies: 1) | 0.000345 | 0.0108 | 0.228 | 0.0107 | 3.06 | 2.02 | 2.84 | 2.1
Plasmodium falciparum isolate 378 (pfmdr1 allele: 86N, 1042N, pfmdr1 copies: 1) | 0.000966 | 0.0391 | 0.0994 | 0.0193 | 6.53 | 2.42 | 5.62 | 3.87
Plasmodium falciparum isolate 135 (pfmdr1 allele: 86N, 1042N, pfmdr1 copies: 2) | 0.00188 | 0.0864 | 0.245 | 0.0162 | 6.61 | 2.92 | 3.38 | 2.5
Plasmodium falciparum isolate 268 (pfmdr1 allele: 86Y, pfmdr1 copies: 1) | 0.000279 | 0.00218 | 0.115 | 0.00436 | 3.19 | 2.07 | 5.93 | 2.04

Test System | EC50 of parasite growth [1] [µg/mL] | EC50 of parasite growth [2] [µg/mL] | EC50 of parasite growth [3] [µg/mL] | EC50 of parasite growth [4] [µg/mL] | slope [5] | slope [6] | slope [7] | slope [8]
Plasmodium falciparum isolate 257 (pfmdr1 allele: 86N, 1042N, pfmdr1 copies: 1) | 0.000761 | 0.0189 | 0.118 | 0.0117 | 5.08 | 2.05 | 3.41 | 2.08
Plasmodium falciparum isolate 402 (pfmdr1 allele: 86N, 1042N, pfmdr1 copies: 1) | 0.000612 | 0.0153 | 0.166 | 0.00634 | 5.13 | 2.2 | 5.55 | 2
Plasmodium falciparum isolate 390 (pfmdr1 allele: 86N, 1042N, pfmdr1 copies: 1) | 0.000248 | 0.0123 | 0.193 | 0.0125 | 3.15 | 2.71 | 6.2 | 2.93
Plasmodium falciparum isolate 39 (pfmdr1 allele: 86N, 1042N, pfmdr1 copies: 1) | 0.000914 | 0.0104 | 0.159 | 0.0225 | 9.46 | 1.67 | 7.25 | 3.37
Plasmodium falciparum isolate 388 (pfmdr1 allele: 1042D, pfmdr1 copies: 1) | 0.000474 | 0.0222 | 0.112 | 0.017 | 5.11 | 2.58 | 4.45 | 3.11
Plasmodium falciparum isolate 478 (pfmdr1 allele: 86N, 1042N, pfmdr1 copies: 1) | 0.000745 | 0.0464 | 0.0688 | 0.037 | 8.06 | 2.89 | 3.67 | 5.7
Plasmodium falciparum isolate 436 (pfmdr1 allele: 86N, 1042N, pfmdr1 copies: 1) | 0.000881 | 0.0119 | 0.0788 | 0.00966 | 3.32 | 4.34 | 3.71 | 3.49
Plasmodium falciparum isolate 141 (pfmdr1 allele: 86N, 1042N, pfmdr1 copies: 1) | 0.000717 | 0.0309 | 0.114 | 0.0284 | 6.6 | 2.61 | 5.41 | 1.93
Plasmodium falciparum isolate 427 (pfmdr1 allele: 86N, 1042N, pfmdr1 copies: 1) | 0.00118 | 0.0367 | 0.0937 | 0.0188 | 5.74 | 3.09 | 3.17 | 2.44
Plasmodium falciparum isolate 386 (pfmdr1 allele: 1042D, pfmdr1 copies: 1) | 0.000586 | 0.00279 | 0.0769 | 0.00421 | 3.58 | 1.95 | 3.34 | 2.56
Plasmodium falciparum isolate 406 (pfmdr1 allele: 86N, 1042N, pfmdr1 copies: 1) | 0.000455 | 0.0233 | 0.0836 | 0.0206 | 9.99 | 2.1 | 2.8 | 2.09
Plasmodium falciparum isolate 323 (pfmdr1 allele: 86N, 1042N, pfmdr1 copies: 3) | 0.00105 | 0.0802 | 0.0758 | 0.0424 | 9.88 | 2.38 | 4.46 | 2.46
Plasmodium falciparum isolate 337 (pfmdr1 allele: 86N, 1042N, pfmdr1 copies: 2) | 0.00121 | 0.0448 | 0.114 | 0.0301 | 8.58 | 3.51 | 3.24 | 3.67
Plasmodium falciparum isolate 82 (pfmdr1 allele: 86N, 1042N, pfmdr1 copies: 2) | 0.00125 | 0.1 | 0.0579 | 0.083 | 7.11 | 2.36 | 2.22 | 2.25
Plasmodium falciparum isolate 174 (pfmdr1 allele: 86N, 1042N, pfmdr1 copies: 1) | 0.000901 | 0.0326 | 0.261 | 0.0302 | 5.48 | 2.29 | 6.83 | 2.11
Plasmodium falciparum isolate 180 (pfmdr1 allele: 86N, 1042N, pfmdr1 copies: 2) | 0.000539 | 0.058 | 0.155 | 0.0238 | 10 | 4.07 | 6.19 | 3.67

Reference: the supplement of paper PMC3722116
